B1: PhoQ; a variant is named by its letters at X, in order, P23837 (parent)
chain: MKKLLRLFFPLSLRVRFLLATAAVVLVLSLAYGMVALIGYSVSFDKTTFRLLRGESNLFYTLAKWENNKLHVELPENIDKQSPTMTLIYDENGQLLWAQRDVPWLMKMIQPDWLKSNGFHEIEADVNDTSLLLSGDHSIQQQLQEVREDDDDAEMTHSVAVNVYPATSRMPKLTIVVVDTIPVELKSSYMVWSWFIYVLSANLLLVIPLLWVAAWWSLRPIEALAKEVRELEEHNRELLNPATTRELTSLVRNLNRLLKSERERYDKYRTTLTDLTHSLKTPLXXLQXXLRSLRSEKMSVSDAEPVMLEQISRISQQIGYYLHRASMRGGTLLSRELHPVAPLLDNLTSALNKVYQRKGVNISLDISPEISFVGEQNDFVEVMGNVLDNACKYCLEFVEISARQTDEHLYIVVEDDGPGIPLSKREVIFDRGQRVDTLRPGQGVGLAVAREITEQYEGKIVAGESMLGGARMEVIFGRQHSAPKDE

This is one part of the list.

The variants in this assay derive from B1. In words: enrichment ratio after two sorts for PhoP signalling (ratio (wild type AVST 3.29)); higher = more functional. Particulars: with PhoP (E. coli).
In the case of LCKL, the enrichment ratio is at most 0.25.
On to SVYQ, for which the enrichment ratio was at most 0.25.
In the case of WWLP, the enrichment ratio was at most 0.25.
The same measure for VATT: at most 0.25.
As to ADAI, the enrichment ratio turned out to be 4.82.
For KIRM, the enrichment ratio was at most 0.25.
For the variant RARK, the enrichment ratio is at most 0.25.
Regarding VVCK, the enrichment ratio is at most 0.25.
As for AYKD, the enrichment ratio is at most 0.25.
For TQAL, the enrichment ratio came to 2.31.
The same measure for DWNR: at most 0.25; for SKMV: 14.3; for DISD: at most 0.25.
Take PINI: the enrichment ratio is at most 0.25.
With RSDP, the enrichment ratio is at most 0.25.
On to YAIW, for which the enrichment ratio is at most 0.25.
Take NPMH: the enrichment ratio is at most 0.25.
On to YLPF, for which the enrichment ratio was at most 0.25.
On to IISN, for which the enrichment ratio was at most 0.25.
Consider PFWL, for which the enrichment ratio was at most 0.25.
Turning to DFPN, the enrichment ratio is at most 0.25.
As for YYWI, the enrichment ratio is at most 0.25.
The same measure for HFWK: at most 0.25; for MSKH: at most 0.25; for IVTS: at most 0.25.
Turning to SQWM, the enrichment ratio is at most 0.25.
In the case of MRPC, the enrichment ratio is at most 0.25.
Take ECAR: the enrichment ratio was at most 0.25.
Next, GRPD: at most 0.25; WEDL: at most 0.25; IWSD: at most 0.25.
As to TDLM, the enrichment ratio is 10.2.
INFP: the enrichment ratio is at most 0.25.
As to YNRL, the enrichment ratio turned out to be 1.06.
For APTL, the enrichment ratio was at most 0.25.
DEAA: the enrichment ratio is at most 0.25.
ELHK: the enrichment ratio was at most 0.25.
Turning to KIMP, the enrichment ratio is at most 0.25.
The same measure for RTAY: at most 0.25; for PLMW: at most 0.25; for DPGA: at most 0.25.
For HSNF, the enrichment ratio is at most 0.25.
Take YAQP: the enrichment ratio was at most 0.25.
As to PMQF, the enrichment ratio is at most 0.25.
Regarding TIKN, the enrichment ratio was at most 0.25.
On to FRRY, for which the enrichment ratio is at most 0.25.
APGD: the enrichment ratio is at most 0.25.
For the variant VGIK, the enrichment ratio was at most 0.25.
For IECD, the enrichment ratio was at most 0.25.
Turning to YFKT, the enrichment ratio was at most 0.25.
For the variant RKQE, the enrichment ratio was at most 0.25.
On to HSTT, for which the enrichment ratio was at most 0.25.
In the case of RRMT, the enrichment ratio was at most 0.25.
In the case of GGKC, the enrichment ratio is at most 0.25.
Regarding LISE, the enrichment ratio was at most 0.25.
Next, WPQM: at most 0.25; FYTV: 0.77.
In the case of GCTF, the enrichment ratio amounted to 1.14.
Turning to WVRI, the enrichment ratio was at most 0.25.
Turning to VNFT, the enrichment ratio is at most 0.25.
On to INFE, for which the enrichment ratio is at most 0.25.
For the variant VNKT, the enrichment ratio is at most 0.25.
Next, PHWL: at most 0.25.
As for RDQE, the enrichment ratio is at most 0.25.
The same measure for FYLN: at most 0.25; for HPEG: at most 0.25.
For ECPG, the enrichment ratio was at most 0.25.
PRRH: the enrichment ratio is at most 0.25.
As for MSHG, the enrichment ratio was at most 0.25.
Regarding FSAY, the enrichment ratio is at most 0.25.
Consider WDPE, for which the enrichment ratio is at most 0.25.
Turning to WCSL, the enrichment ratio is at most 0.25.
In the case of HQCH, the enrichment ratio was at most 0.25.
ELMH: the enrichment ratio was at most 0.25.
On to NVIP, for which the enrichment ratio is at most 0.25.
Next, TTWN: 15.1; YLHY: at most 0.25.
For the variant DPRH, the enrichment ratio was at most 0.25.
Regarding FHYW, the enrichment ratio is at most 0.25.
LWDN: the enrichment ratio was at most 0.25.
In the case of ADIL, the enrichment ratio came to 8.79.
As to PWVT, the enrichment ratio was at most 0.25.
Turning to DFLI, the enrichment ratio was at most 0.25.
Take AEHD: the enrichment ratio was at most 0.25.
Regarding HYHM, the enrichment ratio was at most 0.25.
Next, YALT: 6.34.
Take YDMV: the enrichment ratio was at most 0.25.
The same measure for DRKG: at most 0.25; for LVWR: at most 0.25.
For SLCL, the enrichment ratio was 11.2.
With ATMD, the enrichment ratio is 27.9.
With YQGY, the enrichment ratio is at most 0.25.
Next, QNSI: at most 0.25; YGCT: at most 0.25; HCFP: at most 0.25.
As for QCTM, the enrichment ratio was at most 0.25.
With PLVL, the enrichment ratio is at most 0.25.
Turning to SWSI, the enrichment ratio is at most 0.25.
With HHIK, the enrichment ratio was at most 0.25.
Consider RGTD, for which the enrichment ratio was at most 0.25.
The same measure for TWMW: at most 0.25; for RSWW: at most 0.25; for VMKH: at most 0.25.
On to SFTM, for which the enrichment ratio came to 5.17.
QTWD: the enrichment ratio is 0.338.
The same measure for RMEM: at most 0.25; for PHWV: at most 0.25; for MLND: at most 0.25.
The same measure for GVSL: 5.42; for HTEP: at most 0.25; for KYGV: at most 0.25.
On to DSTR, for which the enrichment ratio is at most 0.25.
The same measure for IAAL: at most 0.25.
Consider FEHN, for which the enrichment ratio was at most 0.25.
On to NHPV, for which the enrichment ratio is at most 0.25.
IKST: the enrichment ratio was at most 0.25.
KQIK: the enrichment ratio was at most 0.25.
The same measure for PETT: at most 0.25; for LIPI: 0.684.
For the variant YFQK, the enrichment ratio was at most 0.25.
In the case of HTIH, the enrichment ratio was at most 0.25.
Next, GWFP: at most 0.25; FKDK: at most 0.25; NVPG: at most 0.25.
The same measure for EKYA: at most 0.25; for MFFQ: at most 0.25; for CTCL: at most 0.25.
Consider KPFP, for which the enrichment ratio is at most 0.25.
For FRSS, the enrichment ratio is at most 0.25.
As for QGRR, the enrichment ratio was at most 0.25.
For MARF, the enrichment ratio is at most 0.25.
As to IGRT, the enrichment ratio is at most 0.25.
For MDMP, the enrichment ratio is at most 0.25.
Next, CCSF: at most 0.25.
Consider SQYY, for which the enrichment ratio was at most 0.25.
As for GGVY, the enrichment ratio is at most 0.25.
As to YGHM, the enrichment ratio is at most 0.25.
Regarding GIWL, the enrichment ratio is at most 0.25.
In the case of NWFH, the enrichment ratio is at most 0.25.
Turning to RAKS, the enrichment ratio is at most 0.25.
For SRKE, the enrichment ratio is at most 0.25.
On to AVMW, for which the enrichment ratio was at most 0.25.
The same measure for LIDQ: at most 0.25; for RCNR: 0.343.
QHII: the enrichment ratio is at most 0.25.
The same measure for NARC: at most 0.25; for QGSS: 14.4; for DYQK: at most 0.25.
With RPNH, the enrichment ratio is at most 0.25.
Consider IRVN, for which the enrichment ratio was at most 0.25.
For the variant IGSN, the enrichment ratio was at most 0.25.
As for QSKE, the enrichment ratio was at most 0.25.
PGLR: the enrichment ratio is at most 0.25.
VIHW: the enrichment ratio was at most 0.25.
For the variant LMRE, the enrichment ratio was at most 0.25.
GTKK: the enrichment ratio was at most 0.25.
Next, NTSW: at most 0.25; KKLV: at most 0.25; HGVW: at most 0.25.
LPSC: the enrichment ratio is at most 0.25.
On to MQEI, for which the enrichment ratio was at most 0.25.
With MMSG, the enrichment ratio is at most 0.25.
For the variant SMHP, the enrichment ratio is at most 0.25.
Consider KCHG, for which the enrichment ratio is at most 0.25.
Next, RIGK: at most 0.25.
Turning to HACH, the enrichment ratio is at most 0.25.
Next, KDTT: at most 0.25; WPTF: at most 0.25.
The same measure for VSSQ: at most 0.25; for PCQC: at most 0.25.
The same measure for AQKN: at most 0.25; for ESRA: at most 0.25.
As to YCGY, the enrichment ratio is at most 0.25.
In the case of GSHL, the enrichment ratio is at most 0.25.
Regarding ICDL, the enrichment ratio is at most 0.25.
For ANNE, the enrichment ratio is at most 0.25.
The same measure for WLFI: at most 0.25; for IMNI: at most 0.25; for IWDW: at most 0.25.
For the variant HETR, the enrichment ratio was at most 0.25.
Consider HFTN, for which the enrichment ratio is at most 0.25.
Take QNAY: the enrichment ratio came out at 3.17.
On to IKHK, for which the enrichment ratio is at most 0.25.
With MSGA, the enrichment ratio was found to be 0.29.
Turning to LNQS, the enrichment ratio was at most 0.25.
On to APSN, for which the enrichment ratio is at most 0.25.
For the variant IFSA, the enrichment ratio is at most 0.25.
Consider EEAP, for which the enrichment ratio is at most 0.25.
Turning to HYVS, the enrichment ratio is at most 0.25.
Regarding TEEF, the enrichment ratio is at most 0.25.
Regarding LDLR, the enrichment ratio is at most 0.25.
For TLVE, the enrichment ratio was at most 0.25.
In the case of NQFV, the enrichment ratio is at most 0.25.
SNTR: the enrichment ratio was at most 0.25.
With VAWF, the enrichment ratio is at most 0.25.
